# Source: PubChem BioAssay AID504332 (National Center for Advancing Translational Sciences (NCATS), 2011)
# Screen size: about 350,000 compounds; about 31,000 (8.9%) were called active. The inconclusive results got no clear call from the source; some entries with a clear call stand among them for comparison. Calls follow the shape of the dose curve; as a rule, active = well fitted inhibition curve with a large enough effect; inconclusive = small, poorly fitted or top-dose-only effect; inactive = no such curve, though single readings can be large or run the other way. Potencies of inconclusive entries are doubtful fits and often do not repeat.
# Target: Histone-lysine N-methyltransferase EHMT2 (Homo sapiens) (UniProt Q96KQ7)
# Test: qHTS Assay for Inhibitors of Histone Lysine Methyltransferase G9a; also: nearly all actives have a fitted effect of over 75% in size
# Settings: G9a H3K9 monomethylation, AlphaScreen, 2 h; activity, negative = inhibition: at 59 µM (top of the series) unless noted
# How it was run: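 Enzyme 20 nM + cpd, 15 min RT; add b-H3K9 pep 500 nM / SAM 20 uM; 2 h RT; anti-H3K9me1 Ab 0.5 ug/mL + SA donor / anti-rabbit acceptor beads 20 ug/mL each, 10 min; AlphaScreen read.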
# % is scaled to controls: 0 for no effect and ±100 for the full control effect; potency is read from the fitted curve at half-maximal effect; tags tell the direction and shape of the fitted curve.
# UniProt Q96KQ7, sequence (Q96KQ7 whole entry, looked up): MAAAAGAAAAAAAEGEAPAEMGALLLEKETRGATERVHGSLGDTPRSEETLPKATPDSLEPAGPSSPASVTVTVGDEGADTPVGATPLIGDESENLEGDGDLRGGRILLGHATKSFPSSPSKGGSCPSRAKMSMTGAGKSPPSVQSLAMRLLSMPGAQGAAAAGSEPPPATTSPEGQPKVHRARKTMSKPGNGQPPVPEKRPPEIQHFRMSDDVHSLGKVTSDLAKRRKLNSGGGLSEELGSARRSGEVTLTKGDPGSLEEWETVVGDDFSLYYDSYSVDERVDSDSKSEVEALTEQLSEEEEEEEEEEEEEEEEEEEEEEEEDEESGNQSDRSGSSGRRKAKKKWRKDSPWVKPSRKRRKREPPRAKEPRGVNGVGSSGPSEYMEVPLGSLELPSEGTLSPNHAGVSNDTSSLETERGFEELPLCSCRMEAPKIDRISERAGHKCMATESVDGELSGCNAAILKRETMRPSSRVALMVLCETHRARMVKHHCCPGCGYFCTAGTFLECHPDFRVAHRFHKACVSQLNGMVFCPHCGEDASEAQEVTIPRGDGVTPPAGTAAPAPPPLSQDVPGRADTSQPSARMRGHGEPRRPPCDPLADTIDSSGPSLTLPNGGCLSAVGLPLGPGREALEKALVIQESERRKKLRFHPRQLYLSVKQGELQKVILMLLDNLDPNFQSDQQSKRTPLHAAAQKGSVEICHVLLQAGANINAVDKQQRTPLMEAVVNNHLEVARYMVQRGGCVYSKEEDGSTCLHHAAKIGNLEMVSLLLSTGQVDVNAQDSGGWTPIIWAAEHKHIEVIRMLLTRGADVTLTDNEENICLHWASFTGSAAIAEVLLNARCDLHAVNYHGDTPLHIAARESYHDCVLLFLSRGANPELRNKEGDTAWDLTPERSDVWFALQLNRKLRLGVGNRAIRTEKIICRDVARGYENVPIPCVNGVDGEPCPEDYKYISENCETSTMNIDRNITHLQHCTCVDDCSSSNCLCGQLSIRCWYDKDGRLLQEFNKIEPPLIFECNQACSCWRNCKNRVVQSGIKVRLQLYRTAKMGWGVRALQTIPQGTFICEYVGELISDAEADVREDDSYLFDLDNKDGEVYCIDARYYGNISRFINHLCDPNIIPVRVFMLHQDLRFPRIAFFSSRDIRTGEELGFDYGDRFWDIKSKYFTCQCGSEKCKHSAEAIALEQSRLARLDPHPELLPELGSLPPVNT
SMILES,"activity, negative = inhibition",Potency
c1ccc2c(c1)ncn2CCn1cnc2ccccc21,inactive: 9.08%,–
O=C(CC1Oc2ccccc2NC1=O)NCc1ccc(Cl)cc1 (centres undefined),–,"inconclusive: 100 µM [inhibitor, single point]"
CCCCC[C@H](O)/C=C/[C@@H]1[C@H]2C/C(=C/CCCC(=O)O)C[C@H]2C[C@H]1O,–,inactive
CC(C)COC(=O)Nc1ccc(C(=O)O)cc1,–,"inconclusive: 79.4 µM [inhibitor, single point]"
CC1CCCN(C(=O)CN2CCN(C(=O)c3ccco3)CC2)C1 (centres undefined),–,active: 25.1 µM
CC(=O)N1C(=O)C2(C(C#N)=C(N)Oc3cc(C)oc(=O)c32)c2ccccc21 (centres undefined),inactive: 0.915% [at 12.7 µM],–
Cc1ccc(C)c(NC(=O)CSc2nccn2-c2cccc(C)c2C)c1,–,active: 17.8 µM
COC(=O)c1nc2n(n1)C(c1ccc([N+](=O)[O-])cc1)C(C(=O)Nc1ccc(Cl)cc1)=C(C)N2 (centres undefined),–,"inconclusive: 89.1 µM [inhibitor, single point]"
CCc1ccc(C2C(C(=O)Nc3ccccc3OC)=C(C)Nc3c(C(=O)Nc4ccc(C)cc4)cnn32)cc1 (centres undefined),–,"inconclusive: 14.1 µM [inhibitor, partial curve, poor fit]"
COc1cccc(NC(=O)c2ccc3c(c2)OCO3)c1,–,"inconclusive: 89.1 µM [inhibitor, single point]"
O=S(=O)(c1ccccc1Cl)N1CCC(O)(c2ccc3c(c2)OCO3)CC1,–,"inconclusive: 44.7 µM [inhibitor, partial curve, poor fit]"
CC(=O)Nc1ccc(NC(=O)c2nc(S(=O)(=O)Cc3ccc(F)cc3)ncc2Cl)cc1,–,"inconclusive: 7.94 µM [inhibitor, partial curve, poor fit]"
CCCOc1ccc(C(=O)NNC(=S)NC(=O)c2cc(-c3ccc(Cl)cc3)nc3ccccc23)cc1,–,"inconclusive: 44.7 µM [inhibitor, partial curve, poor fit]"
O=C1C(=O)N(CCN2CCOCC2)C(c2cccnc2)/C1=C(/O)c1ccccc1 (centres undefined),inactive: -5.54% [at 12.7 µM],–
CCc1ccccc1Nc1nn2c(=O)c3ccc(C(=O)NCCC4=CCCCC4)cc3nc2s1,inactive: 5.87%,–
CCN1CCN(CCNC(=O)CCc2c(C)c3c(C)nn(-c4ccccc4)c3n(C)c2=O)CC1,inactive: 5.26% [at 102 µM],–
COCCCn1c(SCc2cccc(Cl)c2)nc2c(sc3ccccc32)c1=O,inactive: 4.75%,–
COCc1cc(=O)[nH]c(/N=C(\N)Nc2ccc(C)cc2C)n1,inactive: 5.46% [at 102 µM],–
O=C(O)c1ccccc1C(=O)NCCCCCCNC(=O)c1ccccc1C(=O)O,–,"inconclusive: 100 µM [inhibitor, single point]"
N#Cc1ccccc1N1CCN(C(=O)c2ccc(NC(=O)c3ccc(Br)o3)cc2)CC1,inactive: 14.2% [at 2.33 µM],–
C#CCOCCOCCOCCNc1nc(N2CCN(C(=O)[C@H](CCCCN)n3cc(C(N)CO)nn3)CC2)nc(N2CCN(C(=O)[C@H](CCC(=O)O)n3cc(C(N)CC(C)C)nn3)CC2)n1 (some centres undefined),inconclusive: -71.9% [inhibitor] [at 12.7 µM],–
COc1ccc(N(CC(=O)Nc2cccc(Cl)c2)S(=O)(=O)c2c(C)[nH]c(=O)[nH]c2=O)cc1,–,"inconclusive: 31.6 µM [inhibitor, partial curve, poor fit]"
CC(C)NC(=S)NN=C1c2ccccc2-c2ccccc21,inactive: 15.5% [at 102 µM],–

SMILES,"activity, negative = inhibition",Potency
CC(NC(=O)/C(C#N)=C1\N=C(NC(=O)c2cccs2)c2ccccc21)c1ccccc1 (centres undefined),–,"inconclusive: 3.16 µM [inhibitor, full curve, poor fit]"
CCn1cc(C(=O)N2CCOCC2)c(=O)c2cc(S(=O)(=O)N(C)C3CCCCC3)ccc21,–,"inconclusive: 56.2 µM [inhibitor, partial curve, poor fit]"
COc1cccc(NC(=O)CN(C)C(=O)c2cccc(S(=O)(=O)Nc3ccccc3OC)c2)c1,–,"inconclusive: 0.891 µM [inhibitor, partial curve, poor fit]"
COC(=O)C1=C(C)N(CC2CCCO2)C(=O)/C1=C\c1ccc(O)cc1 (centres undefined),–,"inconclusive: 7.08 µM [inhibitor, full curve, poor fit]"
CCOC(=O)c1[nH]c2ccccc2c1NC(=O)CC,inactive: 8.55% [at 102 µM],–
Cc1nn(CC(=O)Nc2ccncc2)c(C)c1[N+](=O)[O-],inactive: 0.0485%,–
CC(=O)c1c(C)nn(CC(O)Cn2c3c(c4cc(C)ccc42)CCCC3=O)c1C (centres undefined),–,"inconclusive: 20 µM [inhibitor, single point]"
CCN(CC)CCN(CC(=O)N(C1CCCCC1)C1CCCCC1)C(=O)c1ccco1,–,active: 44.7 µM
COc1ccccc1NC(=O)/C(C#N)=C/c1cc([N+](=O)[O-])ccc1N1CCCC1,inactive: -4.78%,–
Cc1cc(N2CCCC2)c(C)cc1C=O,–,"inconclusive: 0.708 µM [inhibitor, full curve, poor fit]"
Cc1ccc(C(=O)NC(=S)/C=C2\N(C)c3ccccc3C2(C)C)cc1,–,active: 14.1 µM
COc1ccc(S(=O)(=O)Nc2cc(C(=O)NCCC(C)C)ccc2N2CCOCC2)cc1,–,active: 50.1 µM
O=C(NCC(c1ccco1)N1CCCCC1)C(c1ccccc1)c1ccccc1 (centres undefined),inactive: 18.9% [at 102 µM],–
COc1ccc(CC(=O)NC2CC(C)(C)NC(C)(C)C2)cc1OC,–,"inconclusive: 79.4 µM [inhibitor, partial curve, poor fit]"
Cc1cnc(C(=O)Nc2nnc(C3CC3)s2)cn1,–,active: 5.62 µM
COc1ccc(N2CCN(CCCNC(=O)C3COc4ccccc4C3)CC2)cc1 (centres undefined),–,"inconclusive: 20 µM [inhibitor, partial curve, poor fit]"
Cc1cc(C(F)F)n2nc(C(=O)Nc3sc4c(c3C#N)CCC4)nc2n1,–,active: 50.1 µM
O=C(CN1CCN(S(=O)(=O)c2ccccc2F)CC1)Nc1ccnn1C1CCCC1,inactive: -11.1% [at 2.33 µM],–
Cc1cc(NC(=O)CN2CCc3ccccc3C2)nc2c1c(=O)oc1ccccc12,–,active: 28.2 µM
CC12CCC(=O)N1C(C(=O)Nc1nc3ccc(S(C)(=O)=O)cc3s1)CS2 (centres undefined),–,"inconclusive: 0.158 µM [inhibitor, partial curve, poor fit]"
CC(=O)c1c(N2CCCC2)[nH]c(-c2ccccc2)nc1=S,–,"inconclusive: 79.4 µM [inhibitor, single point]"
O=C(CSc1nnc(Nc2ccccc2)s1)Nc1cccnc1Cl,inactive: -22.7% [at 102 µM],–
COC(=O)c1ccc(N2C(=O)Cc3cc(OC)c(OC)cc3C2c2ccc(F)cc2)cc1 (centres undefined),–,"inconclusive: 28.2 µM [inhibitor, partial curve, poor fit]"

SMILES,"activity, negative = inhibition",Potency
Cc1ccnc2nc(NC(=O)c3ccco3)nn12,–,"inconclusive: 39.8 µM [inhibitor, single point]"
COc1ccc2nc(/N=C\N(C)C)sc2c1,inconclusive: -94.5% [inhibitor],–
CCOC(=O)C1=NN(c2ccccc2)C2(S1)SC(C(C)=O)=C(C)N2c1ccccc1 (centres undefined),–,"inconclusive: 7.08 µM [inhibitor, full curve, poor fit]"
CCC(=O)N1CCc2cc(S(=O)(=O)NCCC(=O)N3CC=C(c4ccccc4)CC3)ccc21,–,"inconclusive: 50.1 µM [inhibitor, partial curve, poor fit]"
Cc1ccnc(NS(=O)(=O)c2ccc(NC(=O)Cc3ccc(F)cc3)cc2)n1,–,"inconclusive: 1 µM [inhibitor, partial curve, poor fit]"
COc1cc(-c2nc3sccn3c2Nc2c(C)cccc2C)ccc1O,inactive: 7.59%,–
C/C(=C\c1ccccc1)C1NC(=O)c2c(sc3c2CCCC3)N1 (centres undefined),–,"inconclusive: 39.8 µM [inhibitor, single point]"
Cc1cc(O)cc(C)c1Cl,–,inactive
CCc1nc(SCC(=O)c2cc(C)ccc2C)n[nH]1,–,"inconclusive: 1.41 µM [inhibitor, single point]"
COc1cc(C(=O)Nc2cc(C(F)(F)F)ccc2N2CCOCC2)ccc1O,–,"inconclusive: 79.4 µM [inhibitor, single point]"
CCCCN(CCCC)CCCNC(=O)C12CN(Cc3ccccc3)CC1C(c1cccc([N+](=O)[O-])c1)=NO2 (centres undefined),inconclusive: -70.7% [inhibitor] [at 12.7 µM],–
Cc1ccc(-c2nc(CS(=O)CC(=O)NC3CCC(C)CC3)c(C)o2)cc1 (centres undefined),–,active: 50.1 µM
Cc1nc(NC(=S)NC(=O)COc2ccc(Cl)cc2)ccc1Br,–,"inconclusive: 39.8 µM [inhibitor, single point]"
COc1c(F)c(F)c(C(=O)O)c(Nc2ccccc2)c1F,inactive: -25.2% [at 102 µM],–
Cc1noc(C)c1-c1cc(Nc2ccccc2)ncn1,inactive: 23.2% [at 0.501 µM],–
O=C(CC(NC(=O)C(F)(F)F)c1ccccc1)Nc1nnc(CCc2ccccc2)s1 (centres undefined),–,active: 10 µM
Cc1ccc(S(=O)(=O)Nc2nc3ccc(S(C)(=O)=O)cc3s2)cc1,inconclusive: -82.7% [inhibitor],–
O=C(Cc1ccccc1)NNC(=S)Nc1ccc(Cl)cc1,–,"inconclusive: 79.4 µM [inhibitor, partial curve, poor fit]"
CC(NS(=O)(=O)c1ccc(Cl)cc1)C(=O)NCc1ccco1 (centres undefined),–,"inconclusive: 89.1 µM [inhibitor, single point]"
CCCn1c(N)c(C(=O)CSc2nc3ccccc3n2CCC#N)c(=O)n(C)c1=O,–,"inconclusive: 22.4 µM [inhibitor, single point]"
CCOc1ccc(-c2nnc3ccc(SCC(=O)Nc4nc5ccc(C)cc5s4)nn23)cc1,–,active: 44.7 µM
O=C(/C=C/c1ccc(Cl)cc1Cl)NCCSCc1ccccc1,inactive: 11.9%,–
CC(C)(C)c1ccc(C(=O)CSc2ncn[nH]2)cc1,–,"inconclusive: 3.16 µM [inhibitor, partial curve, poor fit]"
